# Reference: the antibiotic and cytotoxicity screens of Wong et al. (2023)
# The list shows a part of the results.
# Assays:
# [1] = tested on: HSkMC (human skeletal muscle cells); assay: cytotoxicity call (relative viability < 0.9); conditions: 10 µM
# [2] = tested on: HepG2; assay: cytotoxicity call (relative viability < 0.9); conditions: 10 µM
# [3] = tested on: S. aureus RN4220; assay: growth inhibition call (relative growth <= 0.2); conditions: 50 µM
SMILES,cytotoxicity call [1],cytotoxicity call [2],growth inhibition call [3]
O=C(C[C@H]1C[C@@H]2c3cc(NS(=O)(=O)c4ccc(F)cc4)ccc3O[C@@H]2[C@@H](CO)O1)NCc1ccncc1,inactive,inactive,inactive
C[C@@H]1CN([C@@H](C)CO)C(=O)Cc2cc(NC(=O)CCCCCC(=O)Nc3ccccc3N)ccc2O[C@@H]1CN(C)Cc1ccc(C(F)(F)F)cc1,active,inactive,inactive
Cc1noc(C)c1S(=O)(=O)N(C)C[C@@H]1Oc2c(NC(=O)c3cnccn3)cccc2C(=O)N([C@H](C)CO)C[C@@H]1C,inactive,inactive,inactive
CCS(=O)(=O)N1C[C@]2(CN(C2)C(=O)Nc2ccc3c(c2)OCO3)c2c(n(c3cc(ccc23)OC)C)[C@H]1CO,inactive,inactive,inactive
C[C@@H]1CN([C@H](C)CO)C(=O)c2cc(/C=C/c3ccccc3)cnc2O[C@@H]1CN(C)S(=O)(=O)c1cn(C)cn1,inactive,inactive,inactive
C[C@H]1CCCCO[C@H](CN(C)C(=O)Nc2ccccc2)[C@@H](C)CN([C@@H](C)CO)C(=O)c2cc(NS(=O)(=O)c3ccc(F)cc3)ccc2O1,inactive,inactive,inactive
COC(=O)[C@@H](NC(=O)Cn1cc(CCC(=O)NO)nn1)c1ccccc1,inactive,inactive,inactive
C[C@@H]1CCCCO[C@H](CN(C)S(=O)(=O)c2cccs2)[C@@H](C)CN([C@H](C)CO)C(=O)c2cc(NC(=O)Nc3cccc4ccccc34)ccc2O1,inactive,inactive,inactive
COc1ccc(CN(C)C[C@@H]2OCCCC[C@H](C)Oc3ccc(NC(=O)CCC(F)(F)F)cc3C(=O)N([C@@H](C)CO)C[C@H]2C)cc1,inactive,inactive,inactive
C[C@@H]1CN([C@H](C)CO)C(=O)c2cc(NC(=O)NC3CCCCC3)ccc2O[C@@H](C)CCCCO[C@@H]1CN(C)C(=O)C1CCCCC1,inactive,inactive,inactive
COc1cc(OC)cc(C(=O)N(Cc2ccco2)Cc2cc3ccc(SC)cc3nc2-c2cccc(OC)c2)c1,inactive,inactive,inactive
C[C@H](CO)N1C[C@H](C)[C@H](CN(C)S(=O)(=O)c2cn(C)cn2)Oc2ccc(NC(=O)CCN3CCOCC3)cc2CC1=O,inactive,inactive,inactive
Cc1noc(C)c1S(=O)(=O)Nc1ccc2c(c1)C(=O)N([C@H](C)CO)C[C@@H](C)[C@@H](CN(C)S(=O)(=O)c1cn(C)cn1)OCCCC[C@H](C)O2,inactive,inactive,inactive
C[C@@H]1CCCCO[C@H](CN(C)C(=O)Nc2ccc3c(c2)OCO3)[C@H](C)CN([C@@H](C)CO)C(=O)c2cc(NS(=O)(=O)c3ccc(F)cc3)ccc2O1,inactive,inactive,inactive
COC(=O)[C@H](Cc1ccccc1)N1CC2=C[C@@H](C3CC3)n3c(=O)n(C)c(=O)n3[C@H]2[C@@H]1[C@@H](O)CCn1cc(-c2cccc(/C=C/C(=O)NO)c2)nn1,inactive,inactive,inactive
COc1ccc(S(=O)(=O)N(C)C[C@H]2Oc3ccc(NS(=O)(=O)c4ccccc4)cc3CC(=O)N([C@@H](C)CO)C[C@@H]2C)cc1,inactive,inactive,inactive
COC(=O)[C@@]12CCC(C)(C)C[C@@H]1[C@@H]1C(=O)C=C3[C@]4(C)C=C(C#N)C(=O)C(C)(C)[C@H]4CC[C@]3(C)[C@@]1(C)CC2,active,active,inactive
COc1cccc(NC(=O)N[C@H]2CC[C@@H](CC(=O)N3CCN(C)CC3)O[C@@H]2CO)c1,inactive,inactive,inactive
C[C@@H]1CCCCO[C@H](CN(C)C(=O)CCC(F)(F)F)[C@@H](C)CN([C@H](C)CO)C(=O)c2cc(NC(=O)c3ccccc3)ccc2O1,inactive,inactive,inactive
Cc1noc(C)c1NC(=O)N(C)C[C@H]1OCCCC[C@H](C)Oc2ccc(NS(=O)(=O)c3ccc(Cl)cc3)cc2C(=O)N([C@@H](C)CO)C[C@H]1C,inactive,inactive,inactive
O=C(/C=C/c1ccccc1)OC[C@H]1O[C@@H](O[C@@H]2CC(C(=O)O)=C[C@@H](O)[C@H]2O)[C@H](O)[C@@H](O)[C@@H]1O,inactive,inactive,inactive
C[C@@H]1CN([C@H](C)CO)C(=O)c2cc(NC(=O)Cc3cn(C)c4ccccc34)ccc2O[C@@H]1CN(C)C(=O)Nc1cccc2ccccc12,active,inactive,inactive
C[C@@H]1CN([C@@H](C)CO)C(=O)Cc2cc(NS(=O)(=O)c3cn(C)cn3)ccc2O[C@H]1CN(C)S(=O)(=O)c1ccc(F)cc1,inactive,inactive,inactive
COc1cccc(-c2ccc3c(c2)O[C@@H](CN(C)Cc2cncnc2)[C@H](C)CN([C@@H](C)CO)S3(=O)=O)c1,inactive,inactive,inactive
Cc1ccc(S(=O)(=O)N(C)C[C@H]2Oc3c(NS(=O)(=O)c4ccccc4)cccc3C(=O)N([C@H](C)CO)C[C@H]2C)cc1,inactive,inactive,inactive
COc1cc(/C=C/C(=O)N2CCC=CC2=O)cc(OC)c1OCCOCCOCCOCCC(=O)OC(C)(C)C,active,active,inactive
